Measurements from article PMC4336329 (PLoS ONE, 2015).
The whole screen tested about 310,000 compounds, of which about 2,200 (0.71%) showed an effect of 50% or more. Effects have a minus sign here. The list shows a part of the results.

molecular target: human ether-à-go-go-related gene (hERG) potassium channel (human, UniProt Q12809); test: primary screen, population patch clamp on CHO cells stably expressing hERG
Sequence (Q12809 whole entry, looked up): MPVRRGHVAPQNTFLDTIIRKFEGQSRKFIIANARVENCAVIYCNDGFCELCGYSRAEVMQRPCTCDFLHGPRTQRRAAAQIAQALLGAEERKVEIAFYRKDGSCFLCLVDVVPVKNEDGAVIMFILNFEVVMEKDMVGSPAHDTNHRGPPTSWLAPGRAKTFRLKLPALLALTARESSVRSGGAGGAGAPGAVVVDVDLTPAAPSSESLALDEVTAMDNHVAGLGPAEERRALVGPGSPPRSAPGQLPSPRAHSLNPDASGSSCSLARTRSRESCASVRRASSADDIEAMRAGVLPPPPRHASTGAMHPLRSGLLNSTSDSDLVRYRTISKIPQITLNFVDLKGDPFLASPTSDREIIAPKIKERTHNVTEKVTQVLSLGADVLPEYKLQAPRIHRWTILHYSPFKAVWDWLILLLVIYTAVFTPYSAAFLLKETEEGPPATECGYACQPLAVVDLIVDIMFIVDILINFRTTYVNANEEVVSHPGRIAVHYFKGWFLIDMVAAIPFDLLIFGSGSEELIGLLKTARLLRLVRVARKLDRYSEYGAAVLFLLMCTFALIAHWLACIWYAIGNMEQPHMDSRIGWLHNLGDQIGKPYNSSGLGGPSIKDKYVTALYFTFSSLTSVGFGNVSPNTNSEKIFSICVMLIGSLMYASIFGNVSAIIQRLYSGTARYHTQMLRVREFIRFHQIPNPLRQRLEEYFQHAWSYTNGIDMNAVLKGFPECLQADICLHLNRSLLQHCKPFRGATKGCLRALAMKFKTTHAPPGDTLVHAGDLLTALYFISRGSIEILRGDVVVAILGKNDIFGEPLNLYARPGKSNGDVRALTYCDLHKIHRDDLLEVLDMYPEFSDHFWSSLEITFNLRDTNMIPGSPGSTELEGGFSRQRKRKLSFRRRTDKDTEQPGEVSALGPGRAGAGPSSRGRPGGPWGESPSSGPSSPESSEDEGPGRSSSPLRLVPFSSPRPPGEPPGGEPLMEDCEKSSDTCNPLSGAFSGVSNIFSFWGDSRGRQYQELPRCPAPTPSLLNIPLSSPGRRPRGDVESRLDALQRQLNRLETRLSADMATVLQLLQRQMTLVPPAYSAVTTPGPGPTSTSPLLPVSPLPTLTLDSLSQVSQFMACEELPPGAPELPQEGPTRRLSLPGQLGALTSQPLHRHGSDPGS

SMILES | hERG current change (%, negative = inhibition) at 1uM [%]
COc1ccc(CCNC(=O)c2cc3c(=O)n(C)c4ccccc4c3n2C)cc1OC | 2.13
Cc1nc2ccc(N3C(=O)CCC3=O)cc2[nH]1 | 5.6
O=C(CN1CCC2(CC1)OCCO2)c1c[nH]c2ccccc12 | 13.5
CCc1ccc(NC(=O)/C(C#N)=C\c2ccc(OC)c(C(=O)O)c2)cc1 | 15.1
Cc1cc(C(=O)Nc2ccc(S(=O)(=O)Nc3onc(C)c3C)cc2)cs1 | 11.1
Cn1c(SCC(=O)c2ccc(F)cc2)nc2cccnc21 | 2.78
CCc1ccc2nc(Nc3nc(COC)cc(=O)[nH]3)nc(C)c2c1 | -64.8
COn1c(=O)c(-c2cccs2)[n+]([O-])c2ccccc21 | 3.29
Cc1ccc(NCCc2ccc(C)nc2)cc1 | 10.5
COc1cccc(CNC(=O)Cn2c(=O)oc3ccccc32)c1OC | 8.56
Cn1c(=O)c2c(SCc3cccc(C(F)(F)F)c3)nc(-c3ccco3)nc2n(C)c1=O | 2.39
CCOC(=O)c1c(NC(=O)CSc2nc3cc(Cl)ccc3c(=O)n2Cc2ccco2)sc(C(=O)N(C)C)c1C | 6.3
O=C(Nc1cccc(O)c1)c1cc(-c2ccco2)on1 | 12.6
CN1CCCN(C(=O)/C=C/c2ccc(Cl)cc2Cl)CC1.Cl | -25.7
O=C(NCCCN1CCOCC1)c1cc(-c2ccc(O)cc2)on1 | 1.06
Cn1nc(-c2ccc(C(=O)NC3CCCCC3)cc2)c2ccccc2c1=O | -2.57
COc1ccccc1C(=O)NCC(=O)N1CC=C(c2ccccc2)CC1 | 11.7
Cc1cccc(NC(=S)N(CCN(C)C)C(C)c2ccco2)c1 (stereo not drawn) | 7.21
O=C(COc1ccc(S(=O)(=O)N2CCCCC2)cc1Cl)N1CCCC1 | 4.16
COc1cc(/C=C/C(=O)OC(C)C(=O)Nc2c(C)n(C)n(-c3ccccc3)c2=O)ccc1OCC#N (stereo not drawn) | 9.33
CC1CCc2sc(C(=O)OCC(=O)NC(C)C)cc2C1 (stereo not drawn) | -1.28
CC(C)Sc1nnc(-c2c[nH]c3ccccc23)n1C | 10.5

SMILES | hERG current change (%, negative = inhibition) at 1uM [%]
CCCNC(=O)OC[C@H]1O[C@H](CCO/N=C(\C)CCN2CCc3nc(-c4ccccc4)c(-c4ccccc4)cc3C2)C=C[C@@H]1Oc1ccc(OC)cc1 | 8.32
Cc1cc(C)n(/N=C/c2ccccc2O)c(=O)c1 | 3.08
Cl.O=C(O)c1cccc(Nc2ncnc3c2cnn3-c2ccccc2)c1 | 12.7
COc1ccc(NC(=O)CSc2nnc(C)c(=O)n2N)cc1 | 13.3
O=C1NC2(CCN(Cc3ccccc3)CC2)Oc2ccccc21 | 8.51
Cc1nccc(-c2cccc(NC(=O)c3ccccc3Cl)c2)n1 | 7.23
COc1ccccc1CNC(=O)C(NS(=O)(=O)c1ccc2c(c1)OCCO2)C(C)C (stereo not drawn) | 6.69
Cc1ccc(-n2nc(C)c3c(-c4cccs4)c(C#N)c(N)nc32)cc1 | 12.7
Cn1c(-c2ccsc2)c(-c2cccs2)c2cc(-c3ccc4[nH]ccc4c3)ccc21 | 8.24
CC(C)OC(=O)C1=C2SCC(=O)N2C(N)=C(C#N)C1 | 10.4
COc1ccccc1NC(=O)C(=O)NCCC1CCCCN1S(=O)(=O)c1ccccc1 (stereo not drawn) | 16.6
COc1ccc(NC(=O)COC(=O)c2cc(SC)ccc2Cl)c(OC)c1 | 6.64
CCOC(=O)C1CCCN(Cc2nc(Cc3ccccc3Cl)no2)C1 (stereo not drawn) | -2.77
Cc1c(-n2c(O)c(C3=c4ccccc4=NC3=O)sc2=S)c(=O)n(-c2ccccc2)n1C | 13.7
CCOc1ccc(S(=O)(=O)N2CCC(C(=O)NC3CC3)CC2)cc1C | 11.7
Cn1c(=O)[nH]c(=O)c2c1nc(Sc1nc3ccccc3s1)n2Cc1ccccc1 | 6.69
COc1ccccc1NC(=O)N1CCN(Cc2ccc3c(c2)OCO3)CC1.O=C(O)C(=O)O | 12.1
C[C@]1(C(=O)NCc2cc(F)cc(C(F)(F)F)c2)C=C[C@@H](Cc2ccccc2)N1C(=O)c1ccccc1 | 14.5
Cc1cccc2c(=O)cc(C)n(Cc3ccccc3)c12 | 11
COc1cc(OC)cc(C2=NC3(CCC(C)CC3)NC2=S)c1 (stereo not drawn) | 2.73
O=C(C1=C[C@@H](C2CCCCC2)C[C@@H](OCc2ccc(CO)cc2)O1)N1CCN(Cc2ccc3c(c2)OCO3)CC1 | 12.2
CCSC1=NC(=O)/C(=C2/C=Cc3ccccc3N2CC)S1 | 8.6

SMILES | hERG current change (%, negative = inhibition) at 1uM [%]
COc1cc(OC)cc(-c2c(-c3cccs3)c3cc(-c4ccc5c(c4)OCCO5)ccc3n2C)c1 | 20.7
COC(=O)COc1ccccc1/C=C1/NC(=O)NC1=O | 8.13
O=C(CN(c1ccc2c(c1)OCCO2)S(=O)(=O)c1ccccc1)Nc1ccc2c(c1)OCO2 | 2.01
Cc1cccc(OCC(=O)Nc2ccc3oc(=O)ccc3c2)c1C | 11.6
CC(=O)c1cnc(Oc2cc(Cl)ccc2Cl)nc1C | 9.91
CCOC(=O)C(CCCCCCC(NC(C)=O)(C(=O)OCC)C(=O)OCC)(NC(C)=O)C(=O)OCC | 7.87
COC(=O)CSc1nc2ccccn2c(=O)c1C=O | 12.3
COc1ccc(OC)c(Nc2nc(N)nc(-c3cc4ccccc4o3)n2)c1 | -1.1
Cc1ccc(O)c(Nc2c3ccccc3nc3ccccc23)c1 | -7.15
O=C1CCC/C(=N\NC(=O)c2ccc(COc3cccc4cccnc34)cc2)C1 | 10.9
O=C(Nc1ccc(Cn2ccnc2)cc1)c1cccc(C(F)(F)F)c1 | 7.9
CNS(=O)(=O)c1ccc2c3c(cccc13)C(=O)N2C | 7.83
CN1CCC(NCCC(c2ccc(F)cc2)c2ccc(Cl)cc2)CC1 (stereo not drawn) | 2.44
NS(=O)(=O)c1cccn1-c1ncc(C(F)(F)F)cc1Cl | 5.67
Cc1cccc(OCc2nnc(SCc3nc4ccccc4c(=O)[nH]3)o2)c1 | 11.1
CCn1cc(CN2CCC(C(=O)Nc3cccc(-c4cccc(Cl)c4)c3)CC2)c(C)n1 | -39.2
COc1ccc(OC)c(-n2nnnc2SCC(=O)N2CCN(C(=O)c3ccco3)CC2)c1 | 3.31
CCOc1ccc(NC(=O)CNC(=O)COc2ccccc2)cc1 | 7.09
Cc1cc(C)c(C(=O)/C=C/c2cccc3ccccc23)c(=O)[nH]1 | -13.9
O=c1cc(N2CCCCCC2)[nH]c(=O)n1-c1ccc(Cl)cc1 | 12.6
CC(OC(=O)c1ccc2c(=O)n3c(nc2c1)CCCCC3)C(=O)Nc1ccc(Cl)cn1 (stereo not drawn) | 2.05
Cn1c(SCC(=O)c2ccc(F)cc2)ncc(C(=O)Nc2ccccc2)c1=O | 11.5

SMILES | hERG current change (%, negative = inhibition) at 1uM [%]
CCCn1c(SCC(=O)Nc2cccc(C)n2)nc2c1c(=O)n(C)c(=O)n2C | -2.62
NC1=NC(=O)/C(=C/c2cccc(-c3ccc(S(N)(=O)=O)cc3)c2)S1 | 7.47
C#CCSc1nc(C)cc(C(=O)OCC)c1C#N | 9.89
COc1cccc(CN(C)C(=O)c2ccc(NS(=O)(=O)c3ccc4[nH]c(=O)[nH]c4c3)cc2)c1OC | -1.53
OC(Cn1cncn1)(c1ccccc1)c1ccccc1 | 7.57
Cc1ccc(CS(=O)Cc2ccc(C(=O)N3CCOCC3)o2)cc1 (stereo not drawn) | 4.17
CCCn1cc(S(=O)(=O)c2ccc(OC)cc2)c(=O)c2cc(OCC)ccc21 | 12
CCOC(=O)c1c(/N=C/C2C(=O)NC(=O)NC2=O)sc2c1CCC2 | 6.41
CCN(CC)S(=O)(=O)c1cc(C(=O)Oc2cccc(-c3cnc4ccccc4n3)c2)ccc1OC | 10.5
CCC(CC)C(=O)Nc1ccncc1 | 15.9
N#Cc1c(-c2ccc(Cl)cc2)nc2n(c1=O)CCCS2 | 7.72
CCCCS(=O)CC(CS(=O)CCCC)OC(=O)c1ccccc1 (stereo not drawn) | -1.49
CC(C)(C)c1ccc(-c2noc(CCC(=O)NCC3CCCO3)n2)cc1 (stereo not drawn) | 1.78
COc1ccc(S(=O)(=O)N(Cc2nc3ccccc3c(=O)[nH]2)C2CCCC2)cc1 | 7.62
O=C(c1ccccc1Sc1ccccc1[N+](=O)[O-])N1CCCCC1 | 0.669
CCCCc1ccc(CC(=O)O)cc1 | 10.9
CCCc1nc2oc3c(NCCCN(C)C)ncnc3c2c2c1CCCC2 | 10.7
CC(=O)N1CCN(c2ccc(S(=O)(=O)NCCN(C(C)C)C(C)C)cc2[N+](=O)[O-])CC1 | 13.9
CCOc1ccc(C(C)=O)cc1COc1ccc(-n2cnnn2)cc1 | 6.12
CCOC(=O)CNc1ccc(OC(F)(F)F)cc1 | 4.77
COC(=O)c1cn(C(=O)/C=C/c2ccc(OC)c(OC)c2)c2ccccc12 | 12.7
